{
  "source": "PubChem BioAssay AID1347417",
  "about": "(National Center for Advancing Translational Sciences (NCATS), 2020)",
  "note": "Screen size: about 120,000 compounds; about 5,300 (4.4%) were called active. The inconclusive results got no clear call from the source; some entries with a clear call stand among them for comparison. Calls come from the whole dose curve; as a rule, active = well fitted inhibition curve with a large enough effect; inconclusive = small, poorly fitted or top-dose-only effect; inactive = no such curve, though single readings can be large or run the other way. Potencies of inconclusive entries are doubtful fits and often do not repeat. Potency is the fitted concentration of half-maximal effect; tags give direction and shape of the fitted curve.",
  "data": [
    {"assay": "qHTS Primary assay for Inhibitors of Plasmodium falciparum Dd2 growth in vitro; note: nearly all actives have a fitted effect of over 65% in size;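 for activity, negative = inhibition: plate controls were DMSO vehicle for no effect and reference drug for full effect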", "conditions": "P. falciparum Dd2 growth, SYBR Green, 72 h; activity, negative = inhibition: at 28.9 µM (top of the series) unless noted; series mostly up to 28.9 µM", "method_in_brief": "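Readout: SYBR Green fluorescence, 485 nm excitation, 535 nm emission, after ~16 h lysis at 37C. Before that, Dd2-infected red cells (2.5% hematocrit) grew 72 h with compound, 29 uM top final concentration.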", "values": [
      {"smiles": "COC[C@H]1CCCN1C(=O)CC[C@H]1CNC(=O)[C@@H]2[C@@H](CCN2Cc2ccc(S(C)(=O)=O)cc2)N1C", "Potency": "inactive"},
      {"smiles": "Cn1ccc(C(=O)N2CC3ON=C(C(=O)N4CCOCC4)C3C2)n1", "note": "(configuration not stated)", "activity, negative = inhibition": "inconclusive: -83.3% [inhibitor]"},
      {"smiles": "CC(=O)c1ccc(NC(=O)C2CCN(S(=O)(=O)c3c(C)noc3/C=C/c3ccc(C)cc3)CC2)cc1", "Potency": "inactive"},
      {"smiles": "COc1ccc(-n2c(=O)c3c(n2Cc2ccccc2)CN(CC2CCOC2)CC3)cc1", "note": "(configuration not stated)", "Potency": "inconclusive: 0.1 µM [inhibitor, single point]"},
      {"smiles": "Oc1ccccc1-c1nc2cnccn2c1Nc1ccc(Cl)cc1", "Potency": "active: 2.51 µM"},
      {"smiles": "CCCn1ccc2c(OCC(=O)Nc3ccccc3C(=O)OCC)cccc2c1=O", "Potency": "inconclusive: 17.8 µM [inhibitor, single point]"},
      {"smiles": "O=C(Cc1ccc(F)cc1)N1CCC2(CC1)CC(=O)N(c1ccccc1)c1ccccc1O2", "Potency": "inconclusive: 2.82 µM [inhibitor, single point]"},
      {"smiles": "Cc1cnc(CCNC(=O)c2n[nH]c(=O)c3ccccc23)n1C1CCCCC1", "Potency": "active: 7.94 µM"},
      {"smiles": "CN1CCC(N2CCC[C@H]2c2nc(-c3ccc(OC4CCCCC4)nc3)no2)CC1", "Potency": "inconclusive: 31.6 µM [inhibitor, single point]"},
      {"smiles": "COc1ccc(-c2nn(-c3ccccc3C)cc2CN(C)C(C)c2ccncn2)cc1F", "note": "(configuration not stated)", "Potency": "inconclusive: 20 µM [inhibitor, single point]"},
      {"smiles": "Cc1oc2c(c1C(=O)NCCN1CCCC(C)C1)CN(Cc1cccc(F)c1)CC2", "note": "(configuration not stated)", "Potency": "inconclusive: 3.55 µM [inhibitor, partial curve, poor fit]"},
      {"smiles": "Cc1cccc([C@H]2C[C@@H](O)[C@@H](O)[C@@H]2NS(=O)(=O)c2ccccc2)c1", "Potency": "inconclusive: 14.1 µM [inhibitor, single point]"},
      {"smiles": "Cc1ccc(CNC(=O)N2CCC(Cc3nc(-c4ccncc4)n[nH]3)CC2)cc1", "Potency": "inactive"},
      {"smiles": "CCC(C)n1c(=O)[nH]c2cccnc21", "note": "(configuration not stated)", "Potency": "inactive"},
      {"smiles": "CS(=O)(=O)N(Cc1cccnc1)C1CN(C(=O)c2c[nH]c3ccccc23)C1", "Potency": "inactive"},
      {"smiles": "COc1cncc([C@@H](NC(=O)CCc2scnc2C)C2CC(O)C2)c1", "note": "(some centres not stated)", "Potency": "inactive"},
      {"smiles": "CC(=O)NCC(=O)N1CCC(n2cc(-c3nc(-c4ccccc4)no3)nn2)CC1", "Potency": "inconclusive: 20 µM [inhibitor, single point]"},
      {"smiles": "CC(C)CCN1C(=O)CC[C@]2(C(=O)N3CCN(C)CC3)CCCC[C@@H]12", "Potency": "active: 11.2 µM"},
      {"smiles": "CCOc1ccccc1C(=O)N1CCC(Oc2ncccc2C(=O)N2CCCCC2)C1", "note": "(configuration not stated)", "Potency": "inconclusive: 7.08 µM [inhibitor, partial curve, poor fit]"},
      {"smiles": "O=C1NCCCCCCN(S(=O)(=O)c2ccc3c(c2)CCC3)[C@H]2CCCC[C@@H]12", "Potency": "inconclusive: 20 µM [inhibitor, single point]"},
      {"smiles": "COc1ccc(N2CCN(C(=O)CSc3nc(-c4ccccc4)no3)CC2)cc1", "Potency": "active: 2.82 µM"},
      {"smiles": "NC1CCCCN(Cc2cc3ccccc3o2)C1", "note": "(configuration not stated)", "Potency": "inconclusive: 3.55 µM [inhibitor, full curve, poor fit]"},
      {"smiles": "COC[C@@H]1CN(C(=O)Cc2ccccc2Cl)C[C@H]1c1ccncc1", "Potency": "inconclusive: 7.08 µM [inhibitor, partial curve]"},
      {"smiles": "O=C1Nc2ccccc2CNC12CCN(Cc1ccncc1)CC2", "Potency": "inactive"},
      {"smiles": "CCN1C(=O)C2CC3(CCN(C(=O)CCc4c(C)nn(C)c4C)CC3)CN2C1=O", "note": "(configuration not stated)", "Potency": "inconclusive: 3.98 µM [inhibitor, partial curve, poor fit]"},
      {"smiles": "Cn1cc(C(=O)NCC2CN(C(=O)c3ccc(Oc4ccccc4)cc3)CC23CN(c2ccccc2)C3)cn1", "note": "(configuration not stated)", "Potency": "inconclusive: 2 µM [inhibitor, single point]"},
      {"smiles": "CCN1c2cc(C(=O)N3CCN(c4ccccn4)CC3)ccc2C(=O)N2CCCCCC21", "note": "(configuration not stated)", "Potency": "inconclusive: 6.31 µM [inhibitor, partial curve, poor fit]"},
      {"smiles": "CCn1nccc1C(=O)N1C[C@@H](COCC2CC2)[C@H](c2ccncc2)C1", "Potency": "inactive"},
      {"smiles": "COc1cc(CNC(=O)c2ccc(NC(=O)N3CCCCc4ccccc43)cc2)cc(OC)c1OC", "Potency": "inactive"},
      {"smiles": "CCOCCOC1CCN(S(=O)(=O)Cc2ccccc2)CC1", "Potency": "inconclusive: 20 µM [inhibitor, single point]"},
      {"smiles": "CCOC(=O)c1[nH]c(C)c(CCC(=O)N2CCN(c3cc(C)ccc3C)CC2)c1C", "Potency": "active: 0.631 µM"},
      {"smiles": "COc1ccc(F)cc1[C@@H](NC(=O)C1=NNC(=O)CC1)C1CC(O)C1", "note": "(some centres not stated)", "Potency": "inactive"},
      {"smiles": "CCOc1ccc(OCC)c(NC(=O)CN(C)S(=O)(=O)c2ccc3[nH]c(=O)oc3c2)c1", "Potency": "inconclusive: 11.2 µM [inhibitor, single point]"},
      {"smiles": "O=C1Nc2ccccc2CC12CCCCN2Cc1ccc(C(F)(F)F)cc1", "note": "(configuration not stated)", "Potency": "inconclusive: 0.199 µM [inhibitor, full curve, poor fit]"},
      {"smiles": "Cc1cccc(C(=O)Nc2ccc3nc(SCC(=O)N4CCCC4)sc3c2)c1", "Potency": "inconclusive: 11.2 µM [inhibitor, single point]"},
      {"smiles": "COc1ccc(N2CCN(c3nc(C(=O)NC4CCCCCC4)cs3)CC2)cc1", "Potency": "inconclusive: 17.8 µM [inhibitor, single point]"},
      {"smiles": "Cc1nc(-c2ccccc2)n(CC(=O)Nc2cccc(Cl)c2)c(=O)c1CCO", "Potency": "inconclusive: 1.12 µM [inhibitor, partial curve, poor fit]"},
      {"smiles": "Cn1ccc2cc(NCc3nnc(C(=O)N4CCC[C@@H]4CN4CCCC4)n3-c3ccccc3)ccc21", "Potency": "inconclusive: 0.355 µM [inhibitor, full curve, poor fit]"},
      {"smiles": "COc1ccc(C(=O)N[C@H]2C[C@@H](c3nc(-c4ccc(Cl)cc4)no3)N(C)C2)cc1", "Potency": "inconclusive: 15.8 µM [inhibitor, single point]"},
      {"smiles": "Cc1ccc(C)c(N2CCN(S(=O)(=O)c3cc(C(=O)Nc4ccccc4C(F)(F)F)ccc3F)CC2)c1", "Potency": "inconclusive: 17.8 µM [inhibitor, single point]"},
      {"smiles": "O=C1C2CN(Cc3ccccc3Cl)CCC2OCCN1Cc1ccccc1", "note": "(configuration not stated)", "Potency": "inactive"},
      {"smiles": "CC[C@H]1CN2CC[C@H]1C[C@@H]2CNC(=O)c1ccccc1", "Potency": "inconclusive: 1.12 µM [inhibitor, partial curve, poor fit]"}
    ]}
  ]
}
